Source: PubChem BioAssay AID1963576 (National Center for Advancing Translational Sciences (NCATS), 2024)
Among all 46,000 compounds or so, about 60 (0.1%) were called active. Another 3% or so got no clear call; they are omitted. The call rests on the fitted dose curve; in most records, active means well fitted inhibition curve with a large enough effect; inconclusive means small, poorly fitted or top-dose-only effect; inactive means no such curve, though single readings can be large or run the other way. Some of the results follow.

Assay: Primary qHTS assay for Inhibitors of ovarian cancer metastasis using an organotypic tumor microenvironment (TME) model. Further: nearly all actives have a fitted effect of over 65% in size.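 On activity change, negative = inhibition: plate controls were DMSO wells for no effect and tomatine positive control wells for full effect.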
Settings: SKOV3ip1-GFP adhesion/invasion on 3D omental model, fluorescence; series mostly up to 45.8 µM; activity change, negative = inhibition: at the top concentration
In short: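 Adhesion/invasion was scored as fixed GFP-labeled SKOV3ip1 cell counts (488/509 nm), normalized to DMSO and tomatine controls. Cancer cells in serum-free medium, with four compound doses (0.36-46 umol/L), sat 2 hr at RT then 16 hr at 37 C on a 48 hr fibroblast/mesothelial/ECM culture.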

Activity change, negative = inhibition, inactive:
Cc1cc(C)c(NC(=O)Nc2ccc3snnc3c2)c(C)c1 8.48%, Clc1ccccc1CNc1ncnc2c1c(-c1ccccc1)cn2-c1ccccc1 -3.58%, CCC(C)NC(=O)CSc1nc2c(sc3ccccc32)c(=O)n1Cc1ccccc1Cl (stereo not drawn) 3.22%, Cc1cccc2nc(-c3cccc(NS(=O)(=O)c4ccccc4)c3)cn12 -8.47%, COc1cccc(N2CC(NC(=O)c3cccc(OC)c3OC)CC2=O)c1 (stereo not drawn) -1.66%, CC(=O)c1ccc(NC(=O)COCc2cc(-c3ccco3)on2)cc1 10.9%, COCCCNC(=O)CSc1nc2c(sc3ccccc32)c(=O)n1CCCC(=O)NCCOC -4.63%, COc1ccc2c(c1)c1c(c(=O)n(-c3cccc(Cl)c3)c(=O)n1CC(=O)N1CCCC1)n2C 97.2%, Cc1ccc(-c2cc(C(=O)Oc3ccccc3)c3cc(C)ccc3n2)cc1 0.653%, CCOc1ccccc1NC(=O)Cn1ccn(Cc2ccc(C)cc2)c(=O)c1=O 9.02%, CCOC(=O)Cn1nc(C)c(NC(=O)COc2ccc(Cl)cc2C)c1C 4.14%, CCC1CCCCN1CCCNC(=O)CN1C(=O)CSc2ccc(S(=O)(=O)N3CCOCC3)cc21 (stereo not drawn) -20.1%, Cc1cc(NC(=O)C2CCN(S(=O)(=O)c3ccc4[nH]c(=O)oc4c3)CC2)ccc1Br 10.6%, Clc1ccccc1CN1CCc2sccc2C1 -16.6%, CC(C)(C)C(=O)NCCc1csc2nc(-c3ccc(F)cc3)nn12 3.91%, Cc1ccc(Cl)cc1N1CCN(CCNC(=O)Nc2ccccc2Cl)CC1 112%, COC(=O)c1nc2n(n1)C(c1cc(OC)ccc1OC)C(C(=O)Nc1ccc(C)cc1C)=C(C)N2 (stereo not drawn) 4.31%, Cc1ccc(NC(=O)C(Cc2c[nH]c3ccccc23)NC(=O)OCC(C)C)cc1 (stereo not drawn) 11.6%, COc1cc(NC(=O)c2nc(-c3ccncc3)no2)cc(OC)c1OC 24.4%, CSc1cccc(NC(=O)C2CCN(C(=O)c3cnn(-c4ccccc4)c3-n3cccc3)CC2)c1 10.7%, COc1ccc2oc(-c3ccc(C)c(NC(=O)COc4cc(C)cc(C)c4)c3)nc2c1 -13.1%, Cc1ccc(Cl)cc1NC(=O)C(=O)NCC(c1cccnc1)N1CCc2ccccc21 (stereo not drawn) 8.51%

outcome, inactive:
Cc1ccc(C)c(CSc2nc3ccncc3n2CC(=O)Nc2ccc(N(C)C)cc2)c1, Cc1ccccc1OCc1nnc(SCc2cc(=O)c3cccc(F)c3[nH]2)n1C, Fc1ccccc1Cn1c(-c2ccccc2)nc2ccccc21, Cc1ccc(CN(C(=O)COc2c(C)cccc2C)C2CCS(=O)(=O)C2)o1 (stereo not drawn), COc1ccc(/C=C\C(=O)NC2CC(=O)N(c3ccccc3)C2)cc1OC (stereo not drawn), CCc1ccc(-n2c(=O)c3c4c(sc3n(CC(=O)c3ccc(Cl)cc3)c2=O)CCC4)cc1
